Reference: a collection of fitness landscapes (doi:10.1016/j.celrep.2020.107928)
Whole data set: some 81,000 sequences, median “one-hybrid fitness for binding parS DNA” near -0.17, cut for the highest 2% near 0.51. Some of the results follow.

B1: Caulobacter ParB omega fusion; a variant is named by its letters at X, in order, B8GW30 (parent)
chain: MESVVVGEPGMSEGRRGLGRGLSALLGEVDAAPAQAPGEQLGGSREAPIEILQRNPDQPRRTFREEDLEDLSNSIREKGVLQPILVRPSPDTAGEYQIVAGERAWRAAQRAGLKTVPIMVRELDDLAVLEIGIIENVQRADLNVLEEALSYKVLMEKFERTQENIAQTIGKSXSHVANXMRLLXLPDEVQSYLVSGELTAXHARAIAAAADPVALAKQIIEGGLSVRETEALARKAPNLSAGKSKGGRPPRVKDTDTQALESDLSSVLGLDVSIDHRGSTGTLTITYATLEQLDDLCNRLTRGI

Variants of: B1
Assay: one-hybrid fitness for binding parS DNA (scaled: cognate 1, non-cognate 0); higher = stronger binding
Details: with parS DNA site
Method in brief: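 Fitness is the rescaled log change in variant-to-wild-type read ratio, measured by Illumina sequencing of plasmids before and after bacterial one-hybrid selection. The scale puts cognate at 1 and non-cognate at 0. Selection of Caulobacter ParB libraries, four specificity codons randomised, took place in E. coli USO with a HIS3 reporter, site 19 bp from the promoter, over 48 hours at 37°C on M9-minus-histidine with 0.1 mM IPTG and 5 mM 3-AT.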

one-hybrid fitness for binding parS DNA, 0.888:
RHGS

one-hybrid fitness for binding parS DNA, 0.956:
RAMC

one-hybrid fitness for binding parS DNA, ≤ 0.2:
NTIM
PAYR
VTKW
QWTR
CVRR
STLK
DEGS
IRTN
LKAT
KQYS
HIVW
ITYV
AMST
VDWC
QSHN
AHKF
LAHN
AILL
LPQV
FLNY
EVRY
YTQL
QPQA
YLSV
EYGW
IDPS
DSGM
LTEW
QVVV
QRQD
VHAT
QWCC
REKR
HLHD
VRCG
LSQC
ITVC
LVAD
PGSS
VDYL
YLDR
KDSL
PVPP
VGMC
ITHH
PPIR
LSNN
SYYP
YSFS
EWSG
NMHF
CRCY
QFRG
QHAQ
YLTN
STFW
HTNH
EYVT
NMTS
SNCG
SPDK
AWDG
QCMG
QIRA
AYGM
NAQG
FQTH
SYKS
GAKC
YNTD
PTMY
PDRL
CNIV
QKHV
PLPM
NLCS
QQTN
HACS
GIAH
KHSF
PFPE
AGAW
HHRG
YPMY
CYTR
LILQ
CPAF
SKQV
LNTR
LGSW
CTHV
DRYG
PEGT
DLDA
LMGC
IPYS
MGTW
DSSQ
RQSI
QTNP
CNST
AQTL
DTGR
QGSP
FPEP
VPCA
LIIC
NYTF
IINN
DLPS
QIHL
AAYI
FPVG
AGPP
LLGC
TPRL
MLPY
ISIR
FLCS
RKFV
MRAR
RFSL
LEYT
SDRM
SNIY
KTDT
SAFR
SYPT
AVLP
MHAV
QDWR
PTVV
PRED
ADHC
YDVR
TKYA
KTRY
AFYS
DAFT
MGGS
VYEG
PCPC
WDLT
CFRR
ICNS
EVLG
DTDS
ECMG
WAES

one-hybrid fitness for binding parS DNA, 0.835:
RLKC

one-hybrid fitness for binding parS DNA, 0.217:
RESG
